The campaign covered roughly 44,000 compounds. About 340 (0.77%) were called active. About 5% were inconclusive and are not listed. The call rests on the fitted dose curve; in most records, active means well fitted inhibition curve with a large enough effect; inconclusive means small, poorly fitted or top-dose-only effect; inactive means flat fitted curve, though single readings scatter. The list shows a part of the results.
experiment: Acumen qHTS Assay for Inhibitors of the mTORC1 Signaling Pathway in MEF (Tsc2-/-, p53-/-) Cells: Sytravon; settings: phospho-rpS6 immunofluorescence/PI, 24 h; series mostly up to 38.3 µM; activity change, negative = inhibition: at the top concentration;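 further: plate controls were DMSO for no effect and rapamycin for full effect; nearly all actives have a fitted effect of over 50% in size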
Method in brief: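 Immunofluorescence of rpS6 phosphorylation in Tsc2-/-, p53-/- MEFs after 24 h compound exposure, normalized to propidium iodide signal. Activity is expressed as % positive cells, thresholded with 7.5 nM rapamycin.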

Compound | activity change, negative = inhibition
Cc1ccn2c(c1)nc(=O)c1cc(S(=O)(=O)N3CCCCC3)c(Cl)cc12 | inactive: 0.144%
CCc1ccc(NC(=O)c2sc3nc(C)c(C(=O)Nc4ccc(C)cc4C)c(-c4ccco4)c3c2N)cc1 | inactive: -1.95%
Cc1c(NC(=O)c2cc(-c3ccc(Br)cc3)on2)c(=O)n(-c2ccccc2)n1C | inactive: -28.7%
Cc1ccc(S(=O)(=O)c2nnn3c2nc(N2CCC(C)CC2)c2cc(Cl)ccc23)cc1C | inactive: 6.37%
CCOC(=O)c1c(NC(=O)/C=C/c2ccc(OCC)c(OC)c2)sc2c1CCC2 | inactive: -1.7%
COc1cccc(CNC(=O)CCCN2C(=O)CSc3c2c(C)nn3-c2ccccc2)c1OC | inactive: -10.6%
Cc1cccc(NC(=O)CN2C(=O)c3ccccc3Sc3ncccc32)c1C | inactive: -1.81%
COc1ccccc1C(=O)OCc1cc(=O)n2nc(C3CCCCC3)sc2n1 | inactive: -11.7%
CCn1c(NCc2ccc(OC)c(OC)c2)nc2ccccc21 | inactive: -12.6%
CCOc1ccccc1CNC(=O)c1ccc2c(c1)sc1nc(-c3ccccc3)cn12 | inactive: 4.61%
Cc1noc2ncnc(N3CCCC(C(=O)NC(C)C)C3)c12 (stereo not drawn) | inactive: 6.41%
Cc1ccc(Cl)cc1N1CCN(CCCNc2ncnc3onc(-c4ccc(Cl)cc4)c23)CC1 | inactive: -2.36%
COc1ccc(CCNC(=O)CSC2=Nc3ccccc3C3=NC(CCC(=O)NCc4ccccc4)C(=O)N23)cc1OC (stereo not drawn) | inactive: -0.799%
Cc1cccc(CCNC(=O)C2CCN(c3ncnc4c3nc3n4CCCCC3)CC2)c1 | inactive: -9.97%
COc1ccc(NC(=O)c2ccc(NC(=O)CCS(=O)(=O)c3cccs3)cc2)cc1OC | inactive: -7.55%
CCOC(=O)c1cc(-c2ccccc2)n(CCC(=O)Nc2cc(OCC)ccc2OCC)c1C | inactive: -1.81%
CCCCCn1c(CCCNC(=O)c2cccc(C)c2)nc2ccccc21 | inactive: 5.48%
Cc1cccc(N2CCN(S(=O)(=O)c3ccc4oc(=O)c5ncn(C)c5c4c3)CC2)c1C | inactive: -1.27%
O=C(CCCCn1c(=O)c2ccccc2n(CC(=O)Nc2ccccc2)c1=O)NCc1ccccc1Cl | inactive: -4.67%
CCN(CC)CCCNC(=O)C1CCN(S(C)(=O)=O)CC1 | inactive: 4.24%
Cc1c(C)n(Cc2ccccc2)c2ccc(C(=O)NCc3ccc(OC(C)C)cc3)cc12 | inactive: -22.1%
CCOC(=O)c1sc(NC(=O)C(C)Sc2nc(-c3ccccc3)cc(C(F)(F)F)n2)c(C(=O)OC)c1C (stereo not drawn) | inactive: 1.89%
CCOc1ccc(C(=O)Nc2ccc(-c3nc4cc(C)ccc4o3)cc2)cc1 | inactive: -2.42%
Cc1oc(-c2ccc(C(=O)Nc3cccc(C(F)(F)F)c3)cc2)nc1CSc1ccccc1 | inactive: -8.55%

Compound | activity change, negative = inhibition
COc1ccc(Nc2nc3ccc(Cl)cc3n3nnnc23)cc1OC | inactive: 10.7%
COc1ccc(-c2nc3scc(CCNS(=O)(=O)c4ccc(F)c(C(F)(F)F)c4)n3n2)cc1OC | inactive: -0.602%
O=C(Oc1ccccc1Cl)c1cc(-c2ccc3c(c2)OCCO3)on1 | inactive: -0.148%
Cc1ccc(NC(=O)c2cnc(N3CCCCC3)c3ccccc23)cc1Cl | inactive: -1.24%
Cc1n[nH]c(C)c1CCc1nc2c3ccccc3nc(SCC(=O)Nc3ccc(F)cc3)n2n1 | inactive: -14.2%
Cc1ccc(OCCn2cc(C(=O)c3ccco3)c3ccccc32)cc1C | inactive: -14.7%
COc1ccc(-c2nc3nc(C)cc(Nc4cccc(C(F)(F)F)c4)n3n2)cc1 | inactive: 3.63%
Cc1ccc(CNC(=O)Cn2cc(S(=O)(=O)Cc3cccc(Cl)c3)c3ccccc32)cc1 | inactive: -0.963%
COc1ccc(NC(=O)COc2ccc(S(=O)(=O)NC3CCCCC3)cc2)c(OC)c1 | inactive: -29.1%
O=C(CCCc1nc(-c2ccccc2)no1)Nc1cc(C(F)(F)F)cc(C(F)(F)F)c1 | inactive: -3.22%
Cc1cc(C)c(Cn2c3ccccc3c3cnn(CC(=O)NCc4ccc(Cl)cc4)c(=O)c32)c(C)c1 | inactive: 0.0526%
CCOc1ccc(NC(=O)c2cc(S(=O)(=O)N3CCCC3)c[nH]2)cc1 | inactive: -5.88%
CC1=C(C(=O)Nc2ccccc2C)C(c2ccco2)n2ncnc2N1 (stereo not drawn) | inactive: -0.475%
Cc1sc(-n2cccc2)c(C(C)NC(=O)Nc2ccccc2Cl)c1C (stereo not drawn) | inactive: -6.19%
Cc1noc(Cn2c(=O)c3ccccc3n(CC(=O)Nc3ccc(F)cc3F)c2=O)n1 | inactive: -13.8%
CCOc1ccc(CCNC(=O)c2ccc3c(c2)N(Cc2ccccc2)C(=O)c2ccccc2S3=O)cc1OCC (stereo not drawn) | inactive: 1.54%
O=C(CN(c1cc(C(F)(F)F)ccc1Cl)S(=O)(=O)c1ccccc1)NCCc1ccccc1 | inactive: -1.7%
COc1ccc(-c2c(C#N)c(SCC(=O)Nc3ccc(Br)cc3)nc(C)c2C(=O)Nc2ccccc2)cc1 | inactive: 8.39%
COC(=O)c1ccccc1NC(=O)c1cc2c(s1)-c1ccccc1OC2 | inactive: -1.78%
O=C(CSc1nc(-c2ccccc2)c2ccccc2n1)Nc1ccc(F)cc1 | inactive: -9.84%
CC1=C(C(=O)N2CCCCC2)C(c2cccc(Cl)c2)n2c(nc3ccccc32)N1 (stereo not drawn) | inactive: -9.32%
Cc1cc(C)c(S(=O)(=O)NCCc2cc3ccc(C)cc3[nH]c2=O)c(C)c1 | inactive: 1.89%
CCOc1ccccc1NC(=O)Cn1c(=O)n(-c2ccccc2)c(=O)c2c1c1cc(C)ccc1n2C | inactive: -6.85%
COc1ccc(NC(=O)CN2C(=O)CCc3cc(S(=O)(=O)N4CCOCC4)ccc32)c(OC)c1 | inactive: 2.88%

Compound | activity change, negative = inhibition
CCN(C(=O)CSc1nnc(-c2cc3occc3n2C)n1-c1ccccc1C)c1cccc(C)c1 | inactive: -4.09%
COc1ccc(-c2cn3c(n2)sc2cc(C(=O)NCCCN4CCCCC4)ccc23)cc1 | inactive: 7.64%
CCN(CC)C(=O)c1cnn(-c2ccc(F)cc2)c1-n1cccc1 | inactive: -0.874%
COc1ccc(N2CCN(C(=O)c3ccc4c(=O)n(CCc5ccc(OC)c(OC)c5)c(=O)[nH]c4c3)CC2)cc1 | inactive: -5.76%
CCc1ccc(CNC(=O)CSc2cc(=O)n(CC)c3ccccc23)cc1 | inactive: -8.87%
CCNC(=O)c1c(C)oc2ncn(C)c(=O)c12 | inactive: 1.53%
Cc1nn(CCCC(=O)Nc2cc(C(F)(F)F)ccc2Cl)c(=O)c2c1sc1ccccc12 | inactive: 5.59%
CCc1nn(CC(=O)N(CC)Cc2ccccc2)c(=O)c2cc3occc3n12 | inactive: 0.352%
CCc1ccc(NS(=O)(=O)c2ccc3[nH]cc(C(=O)NCc4ccc(C)cc4)c(=O)c3c2)cc1 | inactive: -5.51%
Clc1ccc2nc(Nc3ccccc3Cl)nc(-c3ccccc3)c2c1 | inactive: 14.8%
CCOc1ccc(-n2c(=O)c3c4c(sc3n(Cc3cccc(C)c3)c2=O)CCCC4)cc1 | inactive: 4.24%
CCOCCCNC(=O)C1CCN(c2cc(C)nc3c(-c4ccc(Cl)cc4)c(C)nn23)CC1 | inactive: -2.27%
O=C(Nc1ccc(Br)cc1F)C(NS(=O)(=O)c1cccc2nsnc12)c1ccccc1 (stereo not drawn) | inactive: -3.11%
Cc1ccc(NC(=O)c2cc3c(-c4ccccc4)nn(-c4ccccc4)c3s2)cc1 | inactive: -7%
COc1ccc(OC)c(NC(=O)c2c(NCc3ccc(OC)c(OC)c3)sc3c2CCC3)c1 | inactive: 0.956%
CCOc1ccccc1NC(=O)Nc1cc(C(=O)NCc2ccc(C)cc2)ccc1N1CCCC1 | inactive: 13.3%
COc1ccc(NC(=O)Cn2c(=O)n(CC(=O)NCCc3ccccc3)c(=O)c3ccccc32)cc1 | inactive: -11.3%
COc1ccc(CNC(=O)c2cc3c(-c4ccccc4F)nn(C)c3s2)cc1 | inactive: 0.585%
O=C(Nc1cc(-c2nc3ccccc3o2)ccc1Cl)c1ccc(Br)o1 | inactive: -18.3%
COc1cc(-c2noc(-c3ccc(N(C)C)c([N+](=O)[O-])c3)n2)cc(OC)c1OC | inactive: 13.6%
Cc1ccc(CCNc2nc3c(S(=O)(=O)c4ccccc4)nnn3c3ccsc23)cc1 | inactive: 5.26%
Cc1ccccc1Cn1c2ccccc2c2cnn(CC(=O)NCCCc3ccccc3)c(=O)c21 | inactive: -5.22%
O=C(Cn1c(-c2cccs2)cc2cc(F)ccc21)N1CCN(c2cccc(Cl)c2)CC1 | inactive: -9.33%
COc1cccc(Cc2nc3ccccc3nc2SCC(=O)N2CCN(c3ccccc3)CC2)c1 | inactive: 0%

Compound | activity change, negative = inhibition
COc1ccc2c(c1)c1c(c(=O)n(-c3ccc(F)c(Cl)c3)c(=O)n1CC(N)=O)n2C | inactive: -5.39%
CCOc1ccc(-c2c(C)nn3c(C)c(C(=O)NCCc4ccccc4)cnc23)cc1OCC | inactive: 1.02%
CC(=O)Nc1ccc(S(=O)(=O)NC2(C(F)(F)F)NC(=O)N(c3ccccc3F)C2=O)cc1 (stereo not drawn) | inactive: -1.24%
CCC1CN(C(=O)Nc2cccc(OC)c2)c2ccccc2O1 (stereo not drawn) | inactive: -18%
COc1cccc2c1cc1c(=O)n(CC(=O)O)nc(C)n12 | inactive: -6.19%
CCOc1ccc(Nc2sc(C(=O)c3ccc4c(c3)OCO4)c(N)c2S(=O)(=O)c2ccc(C)cc2)cc1 | inactive: -0.69%
Cn1nc(C(=O)N2CCN(c3ccc(Cl)cc3)CC2)c2c1-c1ccccc1S(=O)(=O)C2 | inactive: 6.27%
COc1ccccc1CNC(=O)CSc1cc(=O)n(C)c2ccccc12 | inactive: -1.91%
COc1ccc(-c2cc(C(F)(F)F)nc(NCc3ccc(Cl)cc3)n2)cc1 | inactive: 4.07%
CCOc1ccc(C2C(C(=O)Nc3ccccc3OC)=C(C)Nc3c(C(=O)Nc4cccc(C)c4)cnn32)cc1 (stereo not drawn) | inactive: -1.29%
O=C1CC(c2nnc(Cc3cccc(Cl)c3)o2)CN1c1ccccc1 (stereo not drawn) | inactive: 0.884%
Cc1ccc2c(c1)cc1c(=O)n(Cc3ccc(Cl)cc3)nc(C)n12 | inactive: -9.74%
COc1cccc(-c2cc(C(=O)Nc3ccc(Br)c(C)c3)[nH]n2)c1 | inactive: -2.3%
COc1ccc(-n2c(=O)c3ccc(C(=O)NCc4ccc(C)cc4)cc3n(Cc3cccc(Cl)c3)c2=O)cc1 | inactive: -0.164%
COc1ccc(CN(Cc2ccco2)C(=O)c2ccccc2F)cc1 | inactive: 3.34%
CCn1c(CC2C(=O)Nc3ccccc32)nc2ccccc2c1=O (stereo not drawn) | inactive: 3.84%
Cc1cccc(C)c1NS(=O)(=O)c1ccc2c(c1)[C@H]1C=CC[C@H]1[C@@H](c1ccc(Cl)cc1)N2 | inactive: -9.09%
CCc1c(C)sc2c1CCN(Cc1ccccc1C#N)C2c1ccccc1 (stereo not drawn) | inactive: 2.86%
CCOc1ccc(CNC(=O)C2CCN(c3nc4ccccc4nc3C(F)(F)F)CC2)cc1OC | inactive: 10%
CC1CCN(c2oc(-c3cccs3)nc2S(=O)(=O)c2ccccc2)CC1 | inactive: -7.85%
CCOC(=O)c1cnc2c(ccc3ccccc32)c1Nc1cccc(Cl)c1 | inactive: 9.94%
